Laboratory results published in PubChem BioAssay AID504845 (National Center for Advancing Translational Sciences (NCATS), 2011).
The whole screen tested about 390,000 compounds, of which about 150 (0.038%) were called active. The inconclusive results got no clear call from the source; some entries with a clear call stand among them for comparison. Calls come from the whole dose curve; as a rule, active = well fitted inhibition curve with a large enough effect; inconclusive = small, poorly fitted or top-dose-only effect; inactive = no such curve, though single readings can be large or run the other way. Potencies of inconclusive entries are doubtful fits and often do not repeat.

biological target: Regulator of G-protein signaling 4 (Homo sapiens) (UniProt P49798); test: Inhibitors of Regulator of G Protein Signaling (RGS) 4: qHTS; conditions: Transcreener GDP fluorescence polarization, RGS4-accelerated GTP hydrolysis; series mostly up to 114 µM; activity change, negative = inhibition: at the top concentration; note: nearly all actives have a fitted effect of over 75% in size
Outline: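 MLSMR compounds (23 nl, pin-transferred) preincubated 10 min at room temperature with a 500nM (2x) first reagent, then RGS4 at 900nM (2x) plus Transcreener GDP mix added; fluorescence polarization (620/688 nm) read before and after 90 min at 30 °C.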
% is set by controls: 0 for no effect and ±100 for the full control effect; potency is the fitted concentration of half-maximal effect; tags give direction and shape of the fitted curve.

Sequence of UniProt P49798 (P49798 whole entry, looked up): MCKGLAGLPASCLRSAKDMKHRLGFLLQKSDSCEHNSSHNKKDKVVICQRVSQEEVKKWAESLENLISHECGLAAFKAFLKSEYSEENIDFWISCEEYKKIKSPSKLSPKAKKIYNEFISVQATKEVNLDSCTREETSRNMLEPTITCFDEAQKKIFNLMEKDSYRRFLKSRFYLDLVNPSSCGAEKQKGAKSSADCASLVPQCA

Q: `CCc1nnc(N/N=C/c2c(C)[nH]c3ccccc23)n1N` was tested. Which Potency did it give?
A: inconclusive: 31.6 µM [inhibitor, full curve, poor fit]

Q: `Clc1cccc(-c2ccc(/C=N/n3cnnc3)o2)c1Cl` was tested. Which Potency did it give?
A: inconclusive: 79.4 µM [inhibitor, single point]

Q: Which Potency does the source give for `CC(/C=N/NC(=O)CSc1nc2ccccc2n1C)=C\c1ccco1` here?
A: inconclusive: 100 µM [inhibitor, single point]

Q: Which Potency does the source give for `CCCn1c(O)c(CN2CCCC(C)C2)c(C)c(C#N)c1=O` (centres undefined) here?
A: inconclusive: 50.1 µM [inhibitor, partial curve, poor fit]

Q: `O=C(CSc1cn[nH]n1)Nc1cccc(C(=O)O)c1` was tested. Which Potency did it give?
A: inconclusive: 35.5 µM [inhibitor, partial curve, poor fit]

Q: For `Cc1cccc(-n2cnc3c(c2=O)c2nc4ccccc4nc2n3Cc2ccco2)c1`, which Potency is on record?
A: inconclusive: 50.1 µM [inhibitor, partial curve, poor fit]

Q: How did the “activity change, negative = inhibition” value turn out when `Nc1nc2ccccc2n1/N=C/c1ccc([N+](=O)[O-])s1` was run?
A: inactive: 1.66%

Q: With `Cc1ccc(NC(=O)CNC(=O)c2ccco2)cc1` as the compound, how does the “activity change, negative = inhibition” value read?
A: inactive: 6.5%

Q: `Nc1nn(-c2cccc(F)n2)cc1-c1ccc(Cl)cc1` was tested. Which Potency did it give?
A: inconclusive: 100 µM [inhibitor, partial curve, poor fit]

Q: `CCCCN1CCS(=O)(=O)N(Cc2ccccc2Br)CC(C(=O)OC)C1` (centres undefined) was tested. Which “activity change, negative = inhibition” value did it give?
A: inactive: -10.1%

Q: `Cc1ccc(NC(=O)CCCN2C(=O)/C(=C/C=C/c3ccccc3)SC2=S)cc1` was tested. Which Potency did it give?
A: inconclusive: 100 µM [inhibitor, single point]

Q: `Cn1c(=NC(=O)c2ccco2)sc2ccccc21` was tested. Which “activity change, negative = inhibition” value did it give?
A: inactive: -5.34%

Q: How did the “activity change, negative = inhibition” value turn out when `O=c1ccc2cc(O)c(O)cc2o1` was run?
A: inactive: -11%

Q: With `Cc1cc(C(=O)N/N=C/c2ccc(OCc3ccccc3)cc2)c(C)o1` as the compound, how does the Potency read?
A: inconclusive: 50.1 µM [inhibitor, partial curve, poor fit]

Q: How did the Potency turn out when `CN(C)S(=O)(=O)c1cccc(C(=O)C2=C3SC=C(c4ccccc4)N3CC2)c1` was run?
A: inconclusive: 44.7 µM [inhibitor, partial curve, poor fit]

Q: `Cc1cc(-c2n[nH]c(=S)n2/N=C/c2cccc(O)c2)n[nH]1` was tested. Which “activity change, negative = inhibition” value did it give?
A: inactive: -22.8%

Q: `CCCN1C2CCCC1CC(NC(=O)c1ccccc1OCC)C2` (centres undefined) was tested. Which “activity change, negative = inhibition” value did it give?
A: inactive: 18.1%

Q: With `O=C(Nc1ccccc1)N1CCc2scc[n+]2-c2ccccc21` as the compound, how does the Potency read?
A: inconclusive: 31.6 µM [inhibitor, partial curve, poor fit]

Q: With `Cc1cc(C)c(NC(=S)NC(NC(=O)c2ccccc2)C(Cl)(Cl)Cl)c(C)c1` (centres undefined) as the compound, how does the “activity change, negative = inhibition” value read?
A: inactive: -10.5%

Q: How did the “activity change, negative = inhibition” value turn out when `O=C(OCC(O)CO)c1ccccc1Nc1ccnc2cc(Cl)ccc12` (centres undefined) was run?
A: inactive: 3.74%

Q: `Cc1ccc2nc3c(cc2c1)c(NC(=O)C(C)(C)C)nn3CC(C)C` was tested. Which “activity change, negative = inhibition” value did it give?
A: inactive: 20.6%

Q: For `Cc1onc(-c2ccccc2Cl)c1C(=O)NCCn1ccc2ccccc21`, which Potency is on record?
A: inconclusive: 79.4 µM [inhibitor, single point]

Q: For `O=c1[nH]c(Cc2ccccc2Cl)nc2ccccc12`, which “activity change, negative = inhibition” value is on record?
A: inactive: 13.8%

Q: For `O=C1Nc2ccc(Br)cc2/C1=C/C(=O)c1ccccc1`, which Potency is on record?
A: inconclusive: 35.5 µM [inhibitor, partial curve, poor fit]

Q: Which “activity change, negative = inhibition” value does the source give for `Cc1ccc(-c2noc(C3CCCN(C(=O)c4ccc(F)cc4F)C3)n2)cc1` (centres undefined) here?
A: inactive: -13.5%

Q: How did the Potency turn out when `CC(=O)Oc1ccc(C(=O)[C@H]2[C@H]3C(=O)N(c4cccc5ccccc45)C(=O)[C@H]3[C@@H]3C=CC=NN32)cc1` was run?
A: inconclusive: 17.8 µM [inhibitor, full curve, poor fit]

Q: How did the Potency turn out when `CC(=O)Nc1cccc(N=NN2CCOCC2)c1` was run?
A: inconclusive: 70.8 µM [inhibitor, single point]

Q: For `CC(C)CC1Nc2ncnc(N3CCOCC3)c2N(Cc2ccc(Cl)cc2)C1=O` (centres undefined), which “activity change, negative = inhibition” value is on record?
A: inactive: 1.27%

Q: Which “activity change, negative = inhibition” value does the source give for `COc1ccc(N2CCN(C(c3cccc(OC)c3OC)c3nnnn3C3CCCC3)CC2)cc1` (centres undefined) here?
A: inactive: -37.3%

Q: With `COC(=O)c1ccc(N2C(=O)C3CC=CC(C)C3C2=O)cc1` (centres undefined) as the compound, how does the Potency read?
A: inconclusive: 50.1 µM [inhibitor, partial curve, poor fit]

Q: Which Potency does the source give for `COc1ccc(C(=O)Oc2c(OC)cc(C(=S)N3CCOCC3)cc2OC)cc1OC` here?
A: inconclusive: 20 µM [inhibitor, full curve, poor fit]

Q: With `CCOC(=O)CN1NC2(CCC(C)CC2)NC1=S` (centres undefined) as the compound, how does the Potency read?
A: inconclusive: 50.1 µM [inhibitor, partial curve, poor fit]

Q: Which Potency does the source give for `Cc1cc(-c2n[nH]c(=S)n2/N=C/C(Cl)=C/c2ccccc2)n[nH]1` here?
A: inconclusive: 10 µM [inhibitor, full curve, poor fit]

Q: With `COc1ccccc1NC(=O)CSc1n[nH]c(-c2ccco2)n1` as the compound, how does the Potency read?
A: inconclusive: 79.4 µM [inhibitor, single point]

Q: With `CCOc1ncccc1C(=O)OCC(=O)c1ccc(F)cc1` as the compound, how does the Potency read?
A: inconclusive: 31.6 µM [inhibitor, full curve, poor fit]

Q: With `N#Cc1cc2c(=O)n3ccccc3nc2n(Cc2ccco2)c1=NC(=O)c1ccco1` as the compound, how does the Potency read?
A: inconclusive: 20 µM [inhibitor, full curve, poor fit]

Q: For `O=[N+]([O-])c1cccc(S(=O)(=O)c2ccc(NCCO)c([N+](=O)[O-])c2)c1`, which Potency is on record?
A: inconclusive: 20 µM [inhibitor, full curve, poor fit]

Q: For `CSc1nnc(Cn2c(=O)sc3ccccc32)n1-c1ccccc1C`, which Potency is on record?
A: inconclusive: 31.6 µM [inhibitor, full curve, poor fit]

Q: For `O=C(Nc1ccc(Nc2ccncc2)cc1)c1ccc(Nc2ccnc3ccc([N+](=O)[O-])cc23)cc1[N+](=O)[O-]`, which Potency is on record?
A: inconclusive: 39.8 µM [inhibitor, full curve, poor fit]

Q: For `O=Cc1sc(=O)n(Cc2cccc(C(=O)O)c2)c1Cl`, which Potency is on record?
A: inconclusive: 89.1 µM [inhibitor, partial curve, poor fit]

Q: How did the Potency turn out when `CCCCn1nc(C(=O)Nc2ccccc2N2CCCC2)c2ccccc2c1=O` was run?
A: inconclusive: 100 µM [inhibitor, single point]

Q: For `c1ccc(N2CCN(Cc3ccsc3)CC2)nc1`, which “activity change, negative = inhibition” value is on record?
A: inactive: 5.13%

Q: Which Potency does the source give for `CC(=O)Nc1cccc(N(C(=O)C2COc3ccccc3O2)C(C(=O)NC2CCCCC2)c2cn(C)nc2C)c1` (centres undefined) here?
A: inconclusive: 89.1 µM [inhibitor, partial curve, poor fit]

Q: Which “activity change, negative = inhibition” value does the source give for `COc1ccc(NC(=O)c2cc3ccccc3o/c2=N\NS(=O)(=O)c2ccc(C)cc2)cc1` here?
A: inactive: 2.06%

Q: `Cc1nc2cc(NC(=O)C3COc4ccccc4O3)ccc2s1` (centres undefined) was tested. Which Potency did it give?
A: inconclusive: 79.4 µM [inhibitor, single point]

Q: Which “activity change, negative = inhibition” value does the source give for `NC(=O)COC(=O)c1ccc(Cl)c(S(=O)(=O)N2CCCCCC2)c1` here?
A: inactive: -29.6%

Q: For `CC1=C(C(=O)Nc2ccccc2)C(c2ccc(Cl)cc2)n2c(s/c(=C/c3cccc(OCC(=O)O)c3)c2=O)=N1` (centres undefined), which Potency is on record?
A: inconclusive: 20 µM [inhibitor, full curve, poor fit]

Q: With `CCOC(=O)c1c(NC(=O)CSc2nnc(-c3c[nH]c4ccccc34)n2CCOC)sc2c1CCCC2` as the compound, how does the “activity change, negative = inhibition” value read?
A: inactive: -22.2%

Q: `COc1ccc(Cl)cc1S(=O)(=O)NC(C)C(=O)NCc1ccc2c(c1)OCO2` (centres undefined) was tested. Which Potency did it give?
A: inconclusive: 79.4 µM [inhibitor, partial curve, poor fit]

Q: For `CC1CC=CC2C1C(=O)N(Cc1ccccc1)C2c1ccc2ccccc2c1` (centres undefined), which “activity change, negative = inhibition” value is on record?
A: inactive: -21.8%

Q: With `Oc1c(CN2CCCCC2)cc(COCc2ccccc2)c2cccnc12` as the compound, how does the “activity change, negative = inhibition” value read?
A: inactive: -22.1%

Q: For `CC1=C(C(=O)Nc2ccccc2)C(c2ccc(O)cc2)n2nc(-c3ccc(Cl)cc3)nc2N1` (centres undefined), which “activity change, negative = inhibition” value is on record?
A: inactive: 8.66%

Q: Which “activity change, negative = inhibition” value does the source give for `CCc1ccn2cc(-c3cc(-c4ccccc4)no3)nc2c1` here?
A: inactive: -46.4%

Q: `CCc1ccc(-c2nc(CS(=O)CC(=O)NC3CCCCCC3)c(C)o2)cc1` (centres undefined) was tested. Which “activity change, negative = inhibition” value did it give?
A: inactive: -16.5%

Q: `C=CCn1c(SCc2nc3ccccc3nc2C)nnc1-c1ccoc1C` was tested. Which Potency did it give?
A: inconclusive: 50.1 µM [inhibitor, partial curve, poor fit]

Q: `O=C(COC(=O)C12CC3CC(CC(C3)C1)C2)Nc1ncc(Cl)cc1Cl` was tested. Which “activity change, negative = inhibition” value did it give?
A: inactive: 25.3%

Q: Which Potency does the source give for `COc1ccc(/C=N/N=C2/C(=O)Nc3ccccc32)cc1O` here?
A: inconclusive: 50.1 µM [inhibitor, partial curve, poor fit]

Q: How did the Potency turn out when `COCCCNC(=O)C[C@H]1C[C@H](C(=O)N2CCCCC2)[C@@]2(CCc3ccccc3)c3[nH]c4cc(-c5ccco5)ccc4c3CCN2C1=O` was run?
A: inconclusive: 35.5 µM [inhibitor, full curve, poor fit]

Q: `CCN1CCN(Cc2ccc(NC(=O)c3cc(NC(=O)c4cncc(-c5cccs5)c4)cc(OC)c3)cc2C(F)(F)F)CC1` was tested. Which Potency did it give?
A: inconclusive: 50.1 µM [inhibitor, partial curve, poor fit]

Q: Which Potency does the source give for `CCn1c(CNc2nc(-c3ccccc3)cs2)nnc1SCC(=O)NCc1ccco1` here?
A: inconclusive: 89.1 µM [inhibitor, partial curve, poor fit]

Q: For `NC(=O)CSc1nc2scc(-c3ccco3)c2c(=O)n1-c1ccccc1`, which Potency is on record?
A: inconclusive: 56.2 µM [inhibitor, partial curve, poor fit]

Q: Which Potency does the source give for `Clc1ccc(C2=Nn3c(nnc3-c3n[nH]c4c3CCC4)SC2)cc1` here?
A: inconclusive: 89.1 µM [inhibitor, single point]

Q: `CC1=CC(C)(C)n2c(O)c(C3=NC(=S)NC3=O)c3cc(OC(=O)c4cccc5ccccc45)cc1c32` was tested. Which “activity change, negative = inhibition” value did it give?
A: inactive: -10.4%

Q: How did the “activity change, negative = inhibition” value turn out when `C=CCOC(=O)Nc1snnc1C` was run?
A: inactive: -9.11%

Q: With `CS(=O)(=O)n1nc(OC(=O)c2cccs2)cc1N` as the compound, how does the Potency read?
A: inconclusive: 70.8 µM [inhibitor, single point]

Q: `CN(C)/C=C1\N=C(c2ccc3c(c2)OCO3)OC1=O` was tested. Which “activity change, negative = inhibition” value did it give?
A: inactive: -12.2%

Q: `CCCCC(=O)Nc1ccc(NC(=O)C2CC2)nc1` was tested. Which Potency did it give?
A: inconclusive: 70.8 µM [inhibitor, single point]

Q: For `C=CCNc1ncnc2c1[nH]c1ccc(Cl)cc12`, which Potency is on record?
A: inconclusive: 89.1 µM [inhibitor, single point]

Q: For `CC(C(=O)NCC(=O)Nc1ccc(F)c(F)c1F)N1CCN(c2ccc(O)cc2)CC1` (centres undefined), which Potency is on record?
A: inconclusive: 79.4 µM [inhibitor, partial curve, poor fit]
